Tests used:
[1] = molecular target: T1, recombinant human CD19 (human, UniProt P15391 20-291)
T1 sequence (looked up): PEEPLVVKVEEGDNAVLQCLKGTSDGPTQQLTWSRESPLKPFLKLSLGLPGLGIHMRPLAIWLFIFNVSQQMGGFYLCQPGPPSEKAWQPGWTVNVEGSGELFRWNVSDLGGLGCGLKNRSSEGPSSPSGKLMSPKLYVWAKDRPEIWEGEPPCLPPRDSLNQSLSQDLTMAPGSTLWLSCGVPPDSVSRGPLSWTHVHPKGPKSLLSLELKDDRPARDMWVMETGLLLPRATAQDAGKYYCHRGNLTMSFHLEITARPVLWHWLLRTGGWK

[2] = molecular target: T2, recombinant cynomolgus monkey CD19 (cynomolgus monkey, UniProt A0A2K5W8L9 20-292)
T2 sequence: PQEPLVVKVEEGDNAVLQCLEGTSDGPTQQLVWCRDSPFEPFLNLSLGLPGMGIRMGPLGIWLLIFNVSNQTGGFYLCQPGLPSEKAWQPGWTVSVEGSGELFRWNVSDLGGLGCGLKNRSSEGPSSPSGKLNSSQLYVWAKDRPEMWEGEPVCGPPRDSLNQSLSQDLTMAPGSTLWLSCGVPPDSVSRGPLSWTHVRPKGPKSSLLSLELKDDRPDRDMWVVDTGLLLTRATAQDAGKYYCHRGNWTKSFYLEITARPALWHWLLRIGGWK

[3] = molecular target: T3, human CD19 on cells (human, UniProt P15391 20-556)
T3 sequence (looked up): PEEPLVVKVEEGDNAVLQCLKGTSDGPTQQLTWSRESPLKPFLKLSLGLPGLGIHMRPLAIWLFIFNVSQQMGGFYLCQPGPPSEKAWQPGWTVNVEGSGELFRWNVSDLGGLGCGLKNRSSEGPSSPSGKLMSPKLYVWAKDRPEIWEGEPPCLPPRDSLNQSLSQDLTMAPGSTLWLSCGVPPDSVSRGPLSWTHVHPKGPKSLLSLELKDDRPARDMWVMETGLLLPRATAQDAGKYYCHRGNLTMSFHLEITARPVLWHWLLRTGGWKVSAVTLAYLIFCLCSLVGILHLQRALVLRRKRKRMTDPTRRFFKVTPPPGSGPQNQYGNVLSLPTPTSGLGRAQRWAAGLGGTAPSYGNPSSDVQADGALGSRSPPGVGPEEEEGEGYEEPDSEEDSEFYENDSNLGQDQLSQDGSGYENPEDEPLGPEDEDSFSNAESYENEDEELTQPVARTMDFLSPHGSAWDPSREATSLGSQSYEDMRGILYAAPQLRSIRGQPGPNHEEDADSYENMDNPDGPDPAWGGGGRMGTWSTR

[4] = molecular target: T4, cynomolgus monkey CD19 on cells (cynomolgus monkey, UniProt A0A2K5W8L9 20-557)
T4 sequence: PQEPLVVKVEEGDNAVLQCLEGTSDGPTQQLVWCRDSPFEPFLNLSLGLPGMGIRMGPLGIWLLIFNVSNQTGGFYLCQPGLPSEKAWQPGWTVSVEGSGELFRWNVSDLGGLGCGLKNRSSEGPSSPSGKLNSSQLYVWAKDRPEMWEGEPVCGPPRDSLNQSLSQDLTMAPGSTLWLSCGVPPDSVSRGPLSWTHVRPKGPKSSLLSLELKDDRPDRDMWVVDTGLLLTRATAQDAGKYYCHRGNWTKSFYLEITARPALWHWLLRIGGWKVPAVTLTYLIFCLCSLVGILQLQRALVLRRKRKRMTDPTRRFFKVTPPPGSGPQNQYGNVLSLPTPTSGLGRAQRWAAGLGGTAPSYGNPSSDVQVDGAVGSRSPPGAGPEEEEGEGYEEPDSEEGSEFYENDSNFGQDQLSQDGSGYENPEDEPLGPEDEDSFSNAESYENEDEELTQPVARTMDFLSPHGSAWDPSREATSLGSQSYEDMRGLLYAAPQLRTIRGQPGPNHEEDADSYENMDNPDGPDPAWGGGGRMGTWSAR

B1: FMC59 (huFMC63) (antibody, human IgG1, kappa)
heavy: QVQLVQSGGGVVQPGRSLRLSCAASGVSLPDYGVSWVRQAPGKGLEWVAVIWGSETTYYNSALKSRFTISRDNSKNTLYLQMSSLRAEDTAVYYCAKHYYYGGSFAMDYWGQGTLVTVSS[in this place human IgG1 constant region]
light: DIQMTQSPSSLSASVGDRVTITCRASQDISKYLNWYQQKPGKAIKLLIYHTSRLHSGVPSRFSGSGSGTDFTLTISSLQPEDFATYYCQQGATLPYTFGPGTKLEIKRTVAAPSVFIFPPSDEQLKSGTASVVCLLNNFYPREAKVQWKVDNALQSGNSQESVTEQDSKDSTYSLSSTLTLSKADYEKHKVYACEVTHQGLSSPVTKSFNRGEC
Kd [1]: 2.7 nM | Kd [2]: 470 nM

B2: FMC59-S239D/I332E (huFMC63-S239D/I332E) (antibody, human IgG1, kappa)
heavy: QVQLVQSGGGVVQPGRSLRLSCAASGVSLPDYGVSWVRQAPGKGLEWVAVIWGSETTYYNSALKSRFTISRDNSKNTLYLQMSSLRAEDTAVYYCAKHYYYGGSFAMDYWGQGTLVTVSS[in this place human IgG1 constant region with changes]
light: B1 light
EC50 [3]: 1.1 nM | EC50 [4]: 37 nM
